# Values joined by “and” are separate entries in the source; they are usually repeats but may differ in a detail not shown here. Equal entries are not always repeated. The shares of active, inactive and inconclusive entries below differ from those in the screen. Potencies beside an inconclusive call are fits to weak or partial responses and may not hold up. Active and inactive are the calls of the source. The call rests on the fitted dose curve; in most records, active means well fitted activation curve with a large enough effect in the signal ratio in the repeat runs (not every such curve was filed as active); inconclusive means weak or mixed curves; inactive means flat fitted curve, though single readings scatter; the % refers to the signal ratio.
# Experiment: qHTS assay to identify small molecule agonists of H2AX (AID 1224845)
# Conditions: CHO-K1 phospho-H2AX Ser139 HTRF, 3 h; activation (H2AX phosphorylation): at 154 µM (top of the series)
# Description: National Center for Advancing Translational Sciences [NCATS]
# NIH Chemical Genomics Center [NCGC]
# U.S. Environmental Protection Agency [EPA]
# National Institutes of Environmental Health Sciences [NIEHS]
# National Toxicology Program [NTP]
# U.S. Food and Drug Administration [FDA]
# HTRF phospho-H2AX (Ser139) assay (Cisbio Bioassays, US) enables the quantitative detection of the histone variant H2AX when phosphorylated on serine 139. When double-stranded DNA breaks, either by ionizing radiation or endogenous physiological processes, H2AX becomes phosphorylated at Ser139. This phospho-Ser139 serves as a sensitive biomarker for the detection of such breaks, localizing the site of DNA repair. So, HTRF phospho-H2AX Ser139 is a pertinent assay to study genome stability, the cell cycle, DNA repair, and it serves as a biomarker for cancer, and to understand aging. Wild type CHO-K1 cells were used to identify the inducers of Phospho-H2AX Ser 139 from the Tox21 10K compound collections.
# Tox21 Assay Protocol Summary:
# The CHO-K1 cells suspended in culture medium containing 10% FBS were dispensed at 1000 cells/ 3 ul/well in 1536-well white wall/solid bottom plates (Greiner Bio-One North America, NC) using a Multidrop Combi (Thermo Fisher Scientific Inc., Waltham, MA). After the assay plates were incubated at 37C overnight, 23 nl of compounds at 15 concentrations (from 5-48 columns) or positive control (from 1 to 4 columns) were transferred to the assay plates using a Pintool station (Wako, San Diego, CA) into each well resulting in a final DMSO concentration of 0.76%. After 3hr incubation at 37C, 1 uL/well Supplemented Lysis buffer (diluted 100 fold blocking reagent in lysis buffer) (HTRF Phospho-H2A.X (S139) Assay kit from Cisbio US Inc., Bedford, MA) was added using a Flying Reagent Dispenser (FRD) (Aurora Discovery, CA). After 10sec spin at 1000 rpm in a plate centrifuge, the assay plates were incubated at room temperature for 30 min. Then followed by the addition of 1 uL/well detection buffer (containing a mixture of two antibodies, one labeled with cryptate, Anti pH2AX (S139)-K and another labeled with d2, Anti H2AX-d2) using FRD. After incubation at room temperature for 24 hr, the time resolved fluorescence at excitation 320 nm and emissions at 665 nm and 620 nm was measured using an Envision plate reader (PerkinElmer, Waltham, MA).
# On the % scale 0 is the no-effect control and ±100 the full control effect; potency means the concentration at half of the fitted maximal effect; tags describe the fitted curve by direction and shape or compound fluorescence and quenching.
Compound,Potency,activation (H2AX phosphorylation)
Clc1ccc(C(c2ccc(Cl)cc2)C(Cl)(Cl)Cl)cc1,"active: 161 nM and inconclusive: 113 µM [activator, single point] and inconclusive: 55.2 µM [activator, single point]",–
CCC(C)(c1ccc(O)cc1)c1ccc(O)cc1,"inconclusive: 127 µM [activator, partial curve, poor fit]",inconclusive: 6.39%
CC(=O)O[C@H]1CC[C@@]2(C)C(=CC[C@@H]3[C@@H]2CC[C@]2(C)C(=O)CC[C@@H]32)C1,inconclusive: 127 µM [activator],–
CC(C)(O)c1cnn2c(-c3ccc(F)c(-c4c(F)cccc4C#N)c3)cnc2n1,"inconclusive: 101 µM [fluorescent, partial curve]",–
CC(C)OC(=O)C(O)(c1ccc(Cl)cc1)c1ccc(Cl)cc1,active: 80 µM,–
CCc1cccc(C)c1N(C(=O)CCl)[C@@H](C)COC,"inconclusive: 127 µM [activator, partial curve, poor fit]",–
ClC1=C(Cl)C2(Cl)C(CBr)CC1(Cl)C2(Cl)Cl (stereo not given),inconclusive: 113 µM [activator],–
C[C@]12CCC(=O)C[C@@H]1CC[C@@H]1[C@@H]2CC[C@]2(C)[C@@H](O)CC[C@@H]12,"inconclusive: 79.1 µM [activator, partial curve, poor fit] and inconclusive: 71.5 µM [activator]",–
O=[N+]([O-])/C=C/c1ccccc1,active: 20.1 µM,–
O=C1C2(Cl)C3(Cl)C4(Cl)C(Cl)(Cl)C5(Cl)C3(Cl)C1(Cl)C5(Cl)C24Cl (stereo not given),"inconclusive: 108 µM [activator, single point]",inconclusive: 12.2%
CC1(C)C(C=C(Cl)Cl)C1C(=O)OC(C#N)c1ccc(F)c(Oc2ccccc2)c1 (stereo not given),inactive,–
CC(=O)[O][Sn]([c]1ccccc1)([c]1ccccc1)[c]1ccccc1,active: 0.101 µM,–
[CH3][Sn]([CH3])([Cl])[Cl],"inconclusive: 129 µM [activator, single point] and inactive",–
Clc1ccccc1Cl,inactive,–
CCC(C)c1cccc(C(C)CC)c1O (stereo not given),"inconclusive: 50.5 µM [activator, partial curve]",–
c1ccc(Nc2ccc3ccccc3c2)cc1,"inconclusive: 100 µM [activator, single point] and inconclusive: 113 µM [activator, single point]",–
O=C(CCl)c1ccc(Cl)cc1Cl,inconclusive: 113 µM [activator] and inconclusive: 24.7 µM,–
ClC1=C(Cl)[C@]2(Cl)[C@@H]3[C@@H]4C[C@@H]([C@H]5O[C@@H]45)[C@@H]3[C@@]1(Cl)C2(Cl)Cl,active: 17.9 µM,–
CC(C)(c1ccccc1)c1ccc(O)c(C(C)(C)c2ccccc2)c1,active: 39.7 µM,–

Compound,Potency,activation (H2AX phosphorylation)
CCOP(=S)(OCC)Oc1nc(Cl)c(Cl)cc1Cl,"inconclusive: 50.6 µM [activator, single point] and inconclusive: 113 µM [activator, single point]",–
Clc1ccccc1-c1ccccc1Cl,"inconclusive: 81.2 µM [activator, partial curve]",–
C[C@]12C=CC3=C4CCC(=O)C=C4CC[C@H]3[C@@H]1CC[C@@H]2O,inconclusive: 50.1 µM [partial curve] and inconclusive: 38.1 µM [partial curve],–
[Cl-].[Cl-].[Hg+2],active: 1.26 µM and active: 1.42 µM,–
CNC(C)Cc1ccc2c(c1)OCO2 (stereo not given),"inconclusive: 139 µM [activator, single point]",–
[O]=[Cr](=[O])([OH])[O][Cr](=[O])(=[O])[OH],active: 101 µM,–
C=CCC1=C(C)[C@@H](OC(=O)[C@@H]2[C@@H](C=C(C)C)C2(C)C)CC1=O,active: 56.6 µM,–
S=C=Nc1cccc2ccccc12,"inconclusive: 99.7 µM [activator, partial curve]",–
O=c1c(C2CC(c3ccc(-c4ccc(Br)cc4)cc3)Cc3ccccc32)c(O)sc2ccccc12 (stereo not given),inconclusive: 49.2 µM [fluorescent],–
Brc1ccc(Oc2ccccc2)cc1,"inconclusive: 130 µM [activator, single point]",–
CCC[CH2][Sn]([Cl])([Cl])[CH2]CCC,active: 1.28 µM and active: 1.27 µM,–
CCC(C)c1ccc(O)cc1 (stereo not given),inactive,–
CCC[CH2][Sn]([CH2]CCC)([CH2]CCC)[O]C(=O)c1ccccc1,active: 0.505 µM,–
O=S1OCC2C(CO1)C1(Cl)C(Cl)=C(Cl)C2(Cl)C1(Cl)Cl (stereo not given),active: 89.9 µM and active: 101 µM,–
C[C@@H]1C[C@@H]([C@H](O)CC2CC(=O)NC(=O)C2)C(=O)[C@@H](C)C1,"inconclusive: 22.5 µM [activator, partial curve, poor fit] and inconclusive: 3.48 µM [activator, partial curve]",inconclusive: 9.48%
Oc1ccc(C2(c3ccc(O)cc3)c3ccccc3-c3ccccc32)cc1,–,inconclusive: 0.995%
COC12CC[C@@]3(C[C@@H]1C(C)(O)C(C)(C)C)[C@H]1Cc4ccc(O)c5c4[C@@]3(CCN1CC1CC1)[C@H]2O5 (stereo not given in full),active: 56.3 µM,–
CCCCNC(=O)n1c(NC(=O)OC)nc2ccccc21,"inconclusive: 126 µM [activator, single point]",–
